PMC4336329 (PLoS ONE, 2015)
In all, about 310,000 compounds went through this assay and about 2,200 (0.71%) showed an effect of 50% or more. The effect is printed as a negative number. The list shows a part of the results.

target: human ether-à-go-go-related gene (hERG) potassium channel (human, UniProt Q12809); test: primary screen, population patch clamp on CHO cells stably expressing hERG
Sequence (Q12809 whole entry, looked up): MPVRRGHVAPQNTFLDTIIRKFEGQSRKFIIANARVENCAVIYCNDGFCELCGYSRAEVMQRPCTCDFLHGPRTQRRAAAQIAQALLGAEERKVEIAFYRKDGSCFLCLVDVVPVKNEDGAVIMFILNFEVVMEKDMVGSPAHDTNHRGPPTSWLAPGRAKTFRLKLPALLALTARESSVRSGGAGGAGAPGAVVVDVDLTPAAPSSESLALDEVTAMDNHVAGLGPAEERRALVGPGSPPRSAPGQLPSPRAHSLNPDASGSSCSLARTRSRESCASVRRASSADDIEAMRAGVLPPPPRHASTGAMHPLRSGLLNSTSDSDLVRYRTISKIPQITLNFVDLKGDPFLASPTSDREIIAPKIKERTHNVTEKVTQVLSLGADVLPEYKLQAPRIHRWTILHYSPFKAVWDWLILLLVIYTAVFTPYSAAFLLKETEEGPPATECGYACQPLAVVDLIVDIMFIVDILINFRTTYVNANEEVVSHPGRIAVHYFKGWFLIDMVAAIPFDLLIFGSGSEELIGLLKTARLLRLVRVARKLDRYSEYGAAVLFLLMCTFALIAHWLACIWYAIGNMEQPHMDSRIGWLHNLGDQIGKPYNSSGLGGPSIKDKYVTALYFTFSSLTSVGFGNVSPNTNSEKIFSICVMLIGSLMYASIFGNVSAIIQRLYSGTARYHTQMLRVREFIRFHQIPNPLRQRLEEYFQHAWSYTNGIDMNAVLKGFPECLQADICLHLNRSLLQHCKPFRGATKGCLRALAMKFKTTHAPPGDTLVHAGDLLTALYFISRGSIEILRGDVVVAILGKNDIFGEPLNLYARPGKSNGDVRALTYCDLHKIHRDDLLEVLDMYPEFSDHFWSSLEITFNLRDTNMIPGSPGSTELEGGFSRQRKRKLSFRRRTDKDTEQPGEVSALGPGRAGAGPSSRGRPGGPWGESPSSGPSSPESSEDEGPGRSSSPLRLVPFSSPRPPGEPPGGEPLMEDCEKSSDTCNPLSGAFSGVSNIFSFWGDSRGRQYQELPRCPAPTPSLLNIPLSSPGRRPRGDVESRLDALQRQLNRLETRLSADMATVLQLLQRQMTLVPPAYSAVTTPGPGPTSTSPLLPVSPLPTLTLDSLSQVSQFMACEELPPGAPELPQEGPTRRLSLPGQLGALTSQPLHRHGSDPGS

Structure (SMILES)	hERG current change (%, negative = inhibition) at 1uM
CC(=O)Nc1ccc(S(=O)(=O)NCC2CCC(C(=O)N3CCCCC3)CC2)cc1 (stereo not drawn)	13.7%
CCc1ccc(NS(=O)(=O)c2c(C)noc2C)cc1	3.96%
COC(=O)C1=C(c2ccc(OC(F)(F)F)cc2)C[C@@H]2CC[C@H]1N2C(=O)N1CCCC1	5.49%
O=[N+]([O-])c1c(Nc2ccccn2)cc(Cl)c2nonc12	13.4%
C#CCOc1ccc(C2C3=C(CCCC3=O)N(CC(=O)O)C3=C2C(=O)CCC3)cc1Br	17.8%
CCC1c2ccc(C)n2CCN1C(=O)Nc1cc(Cl)ccc1OC (stereo not drawn)	3.07%
CC(C)(O)c1cc(=O)sc2nc3ccccc3n12	-3.9%
CCc1ccccc1NC(=O)CN(C)C(=O)CSc1nnc(Nc2cccc(C)c2)s1	1.69%
CCOC(=O)c1c(C)n(C)c2c(C)cc(O)c(OC(C)=O)c12	8.89%
O=C(CN1CCOCC1)NC1CC2CCC1C2 (stereo not drawn)	5.06%
COc1ccccc1-n1c(Cc2ccccc2)nc2ccccc2c1=O	6.65%
CC1(C)Cc2c(sc(NC(=O)c3ccco3)c2C(=O)O)CO1	4.83%
CS(=O)(=O)c1ccc(C(=O)NC2CCOC2=O)cc1 (stereo not drawn)	-3.22%
CC(C)(C)c1cc(C(=O)Nc2cccnc2)cc(C(=O)Nc2cccnc2)c1	4.84%
CC(=O)NC(Cc1ccc(N(CCCl)CCCl)cc1)C(=O)NC(CC(C)C)C(=O)O (stereo not drawn)	2.39%
NC(N)=N/N=C/c1ccc2cccc(OCc3ccccc3)c2n1	-1.5%
CC(NC(=O)c1ccc(Cl)cc1)c1nnc(SCC(=O)NC2=NCCS2)n1C (stereo not drawn)	17.6%
Cc1ccc(Nc2nc(N)nc(CN3CCN(Cc4ccc5c(c4)OCO5)CC3)n2)c(C)c1	-70.5%
COC(=O)C1C(=O)CC(C)(O)C(C(=O)OC)C1c1ccc2c(c1)OCO2 (stereo not drawn)	15.5%
Cc1ccc(NC(=O)CN(C)C(=O)COC(=O)C(C)(C)Oc2ccc(Cl)cc2)cc1	1.48%
CCC1(COC(NC(=O)c2cccnc2)(C(F)(F)F)C(F)(F)F)COC1	11.3%
COc1cccc(NC(=O)c2cccc(N3C(=O)C4C5C=CC(C5)C4C3=O)c2)c1 (stereo not drawn)	-11.2%
CCOC(=O)CSC1=C(C#N)C(c2ccco2)C(C(=O)Nc2cccc(C(F)(F)F)c2)=C(C)N1 (stereo not drawn)	0.998%
O=C(Nc1ccc(S(=O)(=O)Nc2ccnn2-c2ccccc2)cc1)C(F)(F)F	12.3%
